The other results are listed elsewhere or left out. Sequences were assembled here from the parent chain. Inactive controls read about 0.05.
B1: TEV protease; numbered along this chain (parent)
chain: MGESLFKGPRDYNPISSSICHLTNESDGHTTSLYGIGFGPFIITNKHLFRRNNGTLVVQSLHGVFKVKDTTTLQQHLVDGRDMIIIRMPKDFPPFPQKLKFREPQREERICLVTTNFQTKSMSSMVSDTSCTFPSGDGIFWKHWIQTKDGQCGSPLVSTRDGFIVGIHSASNFTNTNNYFTSVPKNFMELLTNQEAQQWVSGWRLNADSVLWGGHKVFMVKPEEPFQPVKEATQL

Variants of: B1
Experiment: raw area under fraction-flipped curve 0-4 h after induction (AUC4h, not background-subtracted), DNA-recorder readout of cleavage of the substrate (dimensionless); higher = more cleavage of the substrate by the protease variant
Details: temperature: 34 °C; time window: 0-4 h after rhamnose induction
Method: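 In vivo DNA recorder in E. coli TOP10(DE3) ΔrhaA at 34 °C. Each TEVp single-site mutant (parent TEVp 0) is paired with a single-site variant of the 7-mer TEVs (canonical ENLYFQ|S). The substrate sits between flexible linkers in a Bxb1-sfGFP-TEVs-SsrA fusion, so cleavage stabilises Bxb1 and speeds flipping of a recombination array, read by NGS. The value is the raw area under the fraction-flipped curve over 0-4 h after rhamnose induction (AUC4h), with ≥20 reads per time point. It is not background-subtracted; inactive controls average about 0.047.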
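Also: Bxb1 expression induced with 0.2% (w/v) L-rhamnose at OD600 near 0.5, cultures sampled hourly, flipped fraction per protease–substrate barcode pair counted by paired-end Illumina sequencing.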

Row | Variant | area with substrate ENCYFQS | area with substrate ENDYFQS | area with substrate ENEYFQS | area with substrate ENFYFQS | area with substrate ENGYFQS | area with substrate ENHYFQS | area with substrate ENIYFQS | area with substrate ENKYFQS | area with substrate ENRYFQS | area with substrate ENSYFQS | area with substrate ENVYFQS | area with substrate ENWYFQS | area with substrate ENMYFQS | area with substrate ENNYFQS | area with substrate ENPYFQS | area with substrate ENQYFQS | area with substrate ENTYFQS | area with substrate ENYYFQS | area with substrate ENAYFQS
1 | R109Q | 0.0698 | 0.075 | 0.0519 | 0.0631 | 0.0575 | 0.0605 | 0.104 | 0.063 | 0.0602 | 0.0718 | 0.0723 | 0.0562 |  |  |  |  |  |  | 
2 | T176K |  | 0.0356 |  | 0.0612 |  |  | 0.0753 | 0.0603 |  |  | 0.0488 |  |  |  |  |  |  |  | 
3 | N13L | 0.0656 | 0.0574 | 0.0445 | 0.0589 |  | 0.0418 | 0.121 | 0.0589 |  | 0.0589 | 0.0904 |  | 0.0695 | 0.0701 | 0.0653 | 0.0571 | 0.054 | 0.0739 | 
4 | L156H | 0.0543 | 0.0563 | 0.0821 | 0.0533 | 0.0465 | 0.0529 | 0.0529 | 0.0599 | 0.0492 | 0.0615 | 0.0522 |  | 0.0651 |  | 0.0602 | 0.0606 |  | 0.0572 | 
5 | G202Q | 0.0654 | 0.0592 | 0.0705 | 0.0578 | 0.0683 | 0.0874 | 0.0836 | 0.057 | 0.0574 | 0.0744 | 0.0621 | 0.0559 | 0.0693 | 0.0018 | 0.0561 | 0.0581 | 0.0655 | 0.056 | 
6 | I167A |  | 0.0845 | 0.0578 |  | 0.0706 | 0.0663 | 0.0637 |  | 0.0494 |  | 0.0513 |  | 0.0488 | 0.0566 | 0.0489 | 0.0629 | 0.0655 | 0.0649 | 
7 | E231C |  | 0.0651 |  |  | 0.0667 | 0.0583 | 0.103 | 0.0662 | 0.0303 | 0.0656 | 0.0886 | 0.0476 | 0.101 |  |  |  | 0.0689 | 0.059 | 0.055
8 | K230C | 0.0258 | 0.0596 | 0.0616 |  | 0.066 | 0.0567 |  | 0.0578 | 0.0651 |  | 0.0682 |  | 0.0744 | 0.097 | 0.0719 | 0.0606 |  |  | 
9 | K230D | 0.0813 | 0.0608 | 0.0508 | 0.0701 | 0.0494 | 0.0577 |  | 0.0456 | 0.0591 | 0.0668 | 0.0562 |  |  | 0.0672 |  | 0.0594 |  |  | 0.0575
10 | K230N | 0.0605 | 0.0697 | 0.0485 | 0.0576 | 0.0718 | 0.081 | 0.111 | 0.0626 | 0.0549 |  | 0.0623 | 0.0636 | 0.0542 | 0.0691 | 0.0522 | 0.0627 |  | 0.0626 | 0.0587
11 | W199N |  | 0.0623 | 0.064 | 0.0629 |  | 0.0571 | 0.0617 | 0.0542 |  | 0.0587 | 0.0849 |  | 0.0028 | 0.0616 | 0.062 | 0.0729 |  | 0.057 | 
12 | S130Y | 0.0589 | 0.0616 | 0.0573 | 0.0562 | 0.0684 |  | 0.106 |  | 0.0568 | 0.0614 | 0.0758 | 0.0444 | 0.0678 | 0.0624 | 0.0595 | 0.0583 | 0.0542 |  | 
13 | S127E |  | 0.0621 | 0.0647 | 0.0725 | 0.0595 |  | 0.113 |  | 0.0643 | 0.0551 |  |  | 0.0831 | 0.0618 | 0.063 | 0.0615 | 0.0487 | 0.0477 | 
14 | S127K |  |  |  |  | 0.0629 | 0.0642 |  | 0.0604 | 0.0755 |  |  |  |  | 0.0516 |  | 0.0643 | 0.0518 |  | 

From the supplement of paper PMC12217912
